Experimental data from article PMC4336329 (PLoS ONE, 2015).
Screen size: about 310,000 compounds; about 2,200 (0.71%) showed an effect of 50% or more. The effect is printed as a negative number. The list shows a part of the results.

molecular target: human ether-à-go-go-related gene (hERG) potassium channel (human, UniProt Q12809); assay: primary screen, population patch clamp on CHO cells stably expressing hERG
Sequence (Q12809 whole entry, looked up): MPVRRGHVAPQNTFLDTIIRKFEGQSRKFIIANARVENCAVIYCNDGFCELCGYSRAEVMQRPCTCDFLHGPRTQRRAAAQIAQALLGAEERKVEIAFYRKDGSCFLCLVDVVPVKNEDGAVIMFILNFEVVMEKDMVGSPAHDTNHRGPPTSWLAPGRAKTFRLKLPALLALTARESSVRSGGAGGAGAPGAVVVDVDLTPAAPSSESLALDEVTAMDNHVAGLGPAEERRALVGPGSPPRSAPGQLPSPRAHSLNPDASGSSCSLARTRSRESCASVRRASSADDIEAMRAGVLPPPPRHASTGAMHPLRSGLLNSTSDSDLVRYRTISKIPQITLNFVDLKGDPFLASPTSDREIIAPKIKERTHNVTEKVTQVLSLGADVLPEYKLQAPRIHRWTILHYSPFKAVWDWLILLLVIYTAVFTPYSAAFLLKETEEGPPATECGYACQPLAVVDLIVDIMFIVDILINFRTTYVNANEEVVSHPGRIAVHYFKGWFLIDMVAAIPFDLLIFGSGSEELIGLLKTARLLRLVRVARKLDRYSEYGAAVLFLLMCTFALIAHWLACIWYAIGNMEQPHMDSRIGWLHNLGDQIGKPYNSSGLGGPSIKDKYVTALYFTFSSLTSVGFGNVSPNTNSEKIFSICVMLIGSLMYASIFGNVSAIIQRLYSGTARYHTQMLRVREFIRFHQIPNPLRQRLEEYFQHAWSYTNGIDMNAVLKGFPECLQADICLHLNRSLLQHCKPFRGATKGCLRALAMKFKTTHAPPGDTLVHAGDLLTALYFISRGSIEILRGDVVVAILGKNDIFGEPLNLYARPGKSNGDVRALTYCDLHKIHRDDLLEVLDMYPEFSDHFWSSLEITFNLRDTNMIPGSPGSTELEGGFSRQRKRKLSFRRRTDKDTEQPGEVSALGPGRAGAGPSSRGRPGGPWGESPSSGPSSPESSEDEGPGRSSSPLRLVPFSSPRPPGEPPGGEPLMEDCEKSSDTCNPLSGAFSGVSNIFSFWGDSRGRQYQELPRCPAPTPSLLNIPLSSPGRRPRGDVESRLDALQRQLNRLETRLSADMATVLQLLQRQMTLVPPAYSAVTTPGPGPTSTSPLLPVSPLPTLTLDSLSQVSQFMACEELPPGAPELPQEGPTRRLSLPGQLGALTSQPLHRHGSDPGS

SMILES | hERG current change (%, negative = inhibition) at 1uM [%]
Cc1ccc(N2CCN(CC(O)COc3cccc(C)c3)CC2)cc1 (stereo not drawn) | -0.983
Cc1cccc[n+]1CCCCCCCCCC[n+]1ccccc1C.[Br-] | 20.8
CC(C)NC(=O)NC(=O)COC(=O)/C=C/c1ccccc1[N+](=O)[O-] | 16.4
Cc1cc(N2CCN(C)CC2)nc2ccc(NC(=O)c3ccc4c(c3)OCO4)cc12 | -40.4
OC(CNCc1ccc(Cl)cc1)C(F)(F)F (stereo not drawn) | 10.8
O=C(c1ccccc1Cl)N(Cc1ccccc1F)N1C(=O)CCCC1=O | 12.4
O=C(c1ccc(-c2nnc(Nc3cccc(Cl)c3)c3ccccc23)cc1)N1C[C@H]2C[C@H](C1)c1cccc(=O)n1C2 | 9.68
CC(=O)c1cccc(NC(=O)C(C)N2CCc3ccccc3C2)c1 (stereo not drawn) | 6.85
CC(=O)N1CCN(c2ccc(Oc3ncnc4sccc34)cc2)CC1 | 10.7
CCN(CC(=O)NCc1cccs1)S(=O)(=O)c1ccc([N+](=O)[O-])cc1 | -37
COc1ccccc1NC(=O)Oc1ccc(C(C)=O)cc1 | 13.2
O=c1[nH]c2ccc(NC(=S)Nc3ccccc3)cc2[nH]1 | 13.2
CCc1ccc(-c2cc(C(F)(F)F)n3nc(C(=O)Nc4cnn(Cc5ccc(C)cc5)c4)cc3n2)s1 | -3.33
Cc1ccc(CNC(=O)c2cccc(-n3cnnn3)c2)cc1 | -0.774
COCCCNC(=O)c1cc(OC)c(OC)c(OC)c1 | 1.89
CCCCNc1c([N+](=O)[O-])c(=O)n(C)c2ccccc12 | 9.26
Cc1ccc(C)n1-c1cccc(S(=O)(=O)N2CCOCC2)c1 | 12.4
CCNc1nc(NCC)n2c(SCC(=O)Nc3cc(OC)ccc3OC)nnc2n1 | 11.7
O=C(Nc1ccc(F)cc1)c1nc[nH]c1C(=O)O | 18.5
CCOc1ccc(N(CC(=O)NC(C)CC)S(C)(=O)=O)cc1 (stereo not drawn) | -0.392
COc1ccccc1N1CCN(Cc2nnnn2CCc2ccccc2)CC1.Cl | 10.7
C/C(N)=C(/C#N)C(=O)CSc1nc2ccccc2c(=O)n1CCCO | 6.77

SMILES | hERG current change (%, negative = inhibition) at 1uM [%]
COc1cc(NC(=O)COc2ccc(Br)cc2)ccc1NC(=O)C(C)C | 11.2
CCCCCCNCc1cccc(Br)c1.Cl | 0.985
C/C=C/c1ccc(OCCCNCC(C)O)c(OC)c1 (stereo not drawn) | 0.175
CCOc1ccc(N(CC(=O)Nc2ccc(C)cc2)S(=O)(=O)c2c(C)[nH]c(=O)[nH]c2=O)cc1 | 4.23
Cc1cc(C)n(C2CCCCC2OC(=O)CCc2ccccc2)n1 (stereo not drawn) | 10
CCCc1cc(C(=O)NCc2ccc(OC)cc2)no1 | 11.8
Cc1ccc(-n2c(SCc3cn4ccsc4n3)nc3ccccc3c2=O)cc1 | 6.91
COc1ccc(C(=O)CSc2ccc(-c3ccccc3)nn2)cc1 | 10
CCOc1ccc(-n2c(SCC(=O)Nc3cc(C)on3)nnc2-c2c[nH]c3ccccc23)cc1 | 4.06
CCCCCC(=O)Nc1cc(S(=O)(=O)N2CCOCC2)ccc1Oc1ccc(OCC)cc1 | -12.1
CC(C)(C)NCC(O)c1cc(O)cc(O)c1.O=S(=O)(O)O (stereo not drawn) | 15.1
Cc1ccc(S(=O)(=O)N2CCN(c3cc4c(cc3[N+](=O)[O-])n(C)c(=O)n4C)CC2)cc1 | -1.14
COC(=O)c1ccc(NS(=O)(=O)c2c(C)[nH]c(C)c2C(=O)N2CCCC2)cc1 | 3.91
CCN1CCN(CCNC(=O)c2ccc(CS(=O)(=O)c3c(Cl)cccc3Cl)o2)CC1 | 2.25
Cc1ccc(NC(=S)Nc2ccc(F)cc2)cc1 | 7.78
COc1cc(C(=O)NC(C)c2ccc(-n3ccnc3)cc2)cc(OC)c1C (stereo not drawn) | -20.4
CCC(=O)Nc1ccc(NC(=O)c2ccco2)c(OC)c1 | -1.62
O=S(=O)(NCCCN1CCOCC1)c1ccc2c(c1)OCCO2 | 18.4
CC(Oc1ncnc2ccccc12)C(=O)Nc1cccc(S(=O)(=O)N2CCOCC2)c1 (stereo not drawn) | 7.85
Cc1nn(-c2ccc([N+](=O)[O-])cc2)c2c1C(c1ccc(OC(F)F)cc1)N1C(=N2)C(=O)Nc2ccccc21 (stereo not drawn) | 0.442
O=C(NCc1ccc2c(c1)OCO2)c1cccc([N+](=O)[O-])c1 | 1.45
Cc1nn(C)cc1CNC(=O)c1cnn2c1NC(c1ccc(Br)cc1)CC2C(F)(F)F (stereo not drawn) | -3.44

SMILES | hERG current change (%, negative = inhibition) at 1uM [%]
COc1cccc(/C=C/C(=O)Nc2cccc(C(C)=O)c2)c1OC | 12.6
CCN(CC)S(=O)(=O)c1ccc(OC)c(NS(=O)(=O)c2cccc(C(=O)O)c2)c1 | 10.5
COc1ccc(CCNC(=O)CSc2nn(-c3ccccc3)c(=S)s2)cc1OC | -3.26
Cc1cc(=O)n2[nH]c(COc3ccccc3)nc2n1 | 0.74
COc1ccc(CNC(=O)CSc2nnnn2-c2ccc(O)cc2)cc1 | 8.82
COc1cc(OC)c(C2C(C#N)=C(N)Oc3cc(C)n(CCCN4CCOCC4)c(=O)c32)cc1OC (stereo not drawn) | 1.24
COc1ccc(Cn2c(-c3ccc(OC)cc3)nc3c(c(=O)c4ccccc4n3C)c2=O)cc1 | 1.62
CC[N+](C)(C)CCN(Cc1ccc(Cl)cc1)c1ccccn1.[Br-] | -33.2
CC1=N/C(=C\c2ccccc2Cl)C(=O)O1 | 13
Cc1cc(O)c(C(C)C)cc1NC(=O)c1ccc(Cl)cc1 | 7.65
CCCOC(=O)C1[C@H]2C(=O)N(CC3CCCO3)C[C@]23C=C[C@H]1O3 (stereo partly drawn) | 7.11
O=C(NCc1nc2ccccc2[nH]1)C1=C[C@@H](c2ccc(Br)cc2)C[C@@H](OCCCCO)O1 | -39.1
COc1cc2c(cc1O)[C@@H]1Cc3cc(O)c(OC)cc3[C@H](C2)N1C | 17
CCOC(=O)C(=Cc1c[nH]c2ccc(S(=O)(=O)N(C)C)cc12)C(=O)OCC | -1.19
CS(=O)(=O)Nc1nnc(C2CCCC2)s1 | 18.5
CC1Cc2nc(SCC(N)=O)n(Cc3ccccc3)c(=O)c2S1 (stereo not drawn) | 9.58
COc1ccc(C2C(C(=O)c3ccccc3)=C(C)Nc3nc4ccccc4n32)cc1OC (stereo not drawn) | -0.0681
NC(=O)NC(Cc1ccccc1)C(=O)NCCCSc1ccccc1 (stereo not drawn) | 10.9
COc1cccc(Oc2nc(-c3ccccc3O)nc3ccccc23)c1 | 13
CCOC(=O)/C(C#N)=C\C=C1C=CN(C)C=C1 | 1.78
Cc1cccc(OC(C)C(=O)Nc2cc(Cl)ccc2-n2cncn2)c1 (stereo not drawn) | 3.58
Cn1cc(S(=O)(=O)N2CCN(c3cccc(Cl)c3)CC2)c(=O)n(C)c1=O | 8.48

SMILES | hERG current change (%, negative = inhibition) at 1uM [%]
Cc1cc(=O)[nH]c(N/N=C/c2ccccc2Cl)n1 | 13.3
CN(CC(=O)NCc1ccco1)S(=O)(=O)c1cccc2cccnc12 | 4.06
CNC(=O)/C(=C\c1ccc([N+](=O)[O-])cc1)NC(C)=O | -2.59
O=[N+]([O-])c1ccc(S(=O)(=O)NCC(c2cccnc2)N2CCc3ccccc3C2)cc1 (stereo not drawn) | 2.73
Brc1ccc(-c2ccc(C3Nc4cccc5cccc(c45)N3)o2)cc1 | 10.4
COc1ccc(CN(C(=O)Cc2c[nH]c3ccccc23)C(C(=O)NC2CCCCC2)c2ccc(C)o2)cc1 (stereo not drawn) | 9.45
CCC(=O)N/N=C(\C)CC(=O)Nc1cccc([N+](=O)[O-])c1 | 7.54
Cc1ccc(/C=C2/SC(=Nc3ccc(F)cc3)NC2=O)s1 | 13
C=CCn1c(-c2cccnc2Cl)nc2ccccc21 | 9.46
Cc1c(NC(=O)CN2C(=O)NC(C)(c3ccc(OC(F)F)cc3)C2=O)c(=O)n(-c2ccccc2)n1C (stereo not drawn) | 15.3
COc1ccc(C(=O)Nc2ccc(C(=O)Nc3nccs3)cc2)cc1[N+](=O)[O-] | 12.2
Cl.O=C(Nc1ncccc1Cl)C1COc2ccccc2O1 (stereo not drawn) | 6.08
COc1ccc(OC)c(NC(=S)N2CCC(C(O)(c3ccccc3)c3ccccc3)CC2)c1 | -0.0702
CC(NC(=O)C1CCCC1)c1ccc2c(c1)OCCO2 (stereo not drawn) | 5.68
O=C(Nc1cc(S(=O)(=O)Nc2ccc(Cl)cc2)ccc1N1CCCCC1)c1ccc(F)cc1 | 11.1
Cc1cccc(OCCn2cccc2/C=C2/C(=O)NC(=O)N(Cc3ccco3)C2=O)c1 | 8.15
Clc1ccccc1CSc1nncn1NC/C=C/c1ccccc1 | 6.23
CC1=CC(=O)C=CC1(C)C(Cl)(Cl)Cl (stereo not drawn) | -0.359
C=CCn1c(CNC(=O)c2cccs2)nnc1SCC(=O)Nc1ccc(C(=O)O)cc1 | 7.4
CCC(=O)Nc1nc2ccc([N+](=O)[O-])cc2s1 | -0.0748
CCOC(=O)c1c(NC(=O)CSc2c[nH]c3ccccc23)sc2c1CCC2 | 12.5
